{"source": "the supplement of paper PMC11417369", "note": "± gives the standard deviation of the averaged measurements. This is one part of the list.", "data": [{"tested_on": "PfAP2-G AP2 domain (GST-tagged)", "assay": "gcPBM binding intensity (ln(normalized median fluorescence intensity)); higher = stronger DNA binding", "in_short": "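Alexa488 anti-GST antibody, scanned at 488 nm, detected GST-tagged P. falciparum DNA-binding domains that had been expressed in E. coli and incubated for 1 h on an Agilent 4 × 180k array. The array carried primer-extended double-stranded 36-bp intergenic genomic probes and negative controls. Binding intensity is the highest Masliner-normalised natural-log median intensity across replicate spots of either orientation of each probe.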", "values": [{"sequence": "GACCCCATATACATATGTACATACATAATATATATA [XGTACX_site1817]", "gcPBM binding intensity (ln)": "11.1 ± 0.73"}, {"sequence": "ATATATATTTTAATTACACACAAAAAAAAAAAAAAA [CACACA_site4778]", "gcPBM binding intensity (ln)": "9.81 ± 0.47"}, {"sequence": "CTAATTGTTATTTTGTGTACTTATCATTCGAAATAT [XGTACX_site7963]", "gcPBM binding intensity (ln)": "11.6 ± 0.96"}, {"sequence": "AAAAAACAAATAAGTAAACACACATATATAATATAT [CACACA_site8830]", "gcPBM binding intensity (ln)": "9.975 ± 0.035"}, {"sequence": "TAGATGTAAGTACATACACACATATATAAATAAATA [CACACA_site8528]", "gcPBM binding intensity (ln)": "11.4 ± 0.98"}, {"sequence": "GTCATATATTTATGTACACACATATATATATTTATA [CACACA_site4911]", "gcPBM binding intensity (ln)": "11.3 ± 0.91"}, {"sequence": "AAAAAAAAAAAAAATACACACATATTTTATAGGGGA [CACACA_site3261]", "gcPBM binding intensity (ln)": "10 ± 0.18"}, {"sequence": "TATTTTTTGAAAAGTTCACACATCCAACTCGAGTTG [CACACA_site4412]", "gcPBM binding intensity (ln)": "10.5 ± 0.3"}, {"sequence": "AAAATAATGAAATGAAAAAAAAAAATTTAGATTCTA [CACACA_negctrl_site1385]", "gcPBM binding intensity (ln)": "9.3 ± 0.37"}, {"sequence": "TTATATATTTTTAGGTGTACTTTTTTTTTTTTTTTT [XGTACX_site8164]", "gcPBM binding intensity (ln)": "11.7 ± 0.91"}, {"sequence": "TATGAATATCTATACACACACATATAAATACACGCT [CACACA_site6853]", "gcPBM binding intensity (ln)": "10.3 ± 0.28"}, {"sequence": "AGGATATATATATTCACACACACATGGAAATATATA [CACACA_site383]", "gcPBM binding intensity (ln)": "9.91 ± 0.028"}, {"sequence": "ATATATATTTTATATTGTACTTATTATTTTTAGGGC [XGTACX_site723]", "gcPBM binding intensity (ln)": "11.4 ± 0.81"}, {"sequence": "TATTTTGCAAAATGTGCATGTTGTGTATTATGTGAC [TGCATGCA_site59]", "gcPBM binding intensity (ln)": "10.3 ± 0.21"}, {"sequence": "CATATGTTATATGTAGTGCATTACTATAGGATTTAT [GTGCAC_site9860]", "gcPBM binding intensity (ln)": "10.4 ± 0.28"}, {"sequence": "TCATTTATTTTTCTTTGTACACAAAAGTTTTTATGT [XGTACX_site690]", "gcPBM binding intensity (ln)": "11.4 ± 0.9"}, {"sequence": "GTATAATTGGAAATTACACACCTTAGAATGTAACAT [CACACA_site4059]", "gcPBM binding intensity (ln)": "9.97 ± 0.014"}, {"sequence": "ATTATAATATATATATGTACATATATATATAATACT [XGTACX_site5092]", "gcPBM binding intensity (ln)": "11.2 ± 0.67"}, {"sequence": "TATAATATACTATGTGGTACATATATATATTTATAG [XGTACX_site4556]", "gcPBM binding intensity (ln)": "11.2 ± 0.85"}, {"sequence": "ATATATAATATTGGTGGTACAAGGGTATTTTATATT [XGTACX_site8215]", "gcPBM binding intensity (ln)": "11.3 ± 0.79"}, {"sequence": "TCTTTAGCTTCTTCTTTTTTTTTTTTTTTTTTTTTT [XGTACX_negctrl_site518]", "gcPBM binding intensity (ln)": "10.8 ± 0.38"}, {"sequence": "ATATATATATATATATGTACATAAACATATATATAT [XGTACX_site1064]", "gcPBM binding intensity (ln)": "11.5 ± 1.1"}, {"sequence": "TGGTATGCAATATTGGTGCGTATATATTTTAAAGGG", "gcPBM binding intensity (ln)": "10.3 ± 0.16"}, {"sequence": "TATTTTTAATTTTTTAATGGTTTAATATTTTTATAT [CACACA_negctrl_site1186]", "gcPBM binding intensity (ln)": "9.69 ± 0.13"}, {"sequence": "TATTCTAAGATAAGTGGTACTTATATATAATATATA [XGTACX_site8316]", "gcPBM binding intensity (ln)": "11 ± 0.64"}, {"sequence": "AATATATGGTTTCTTGATATTAAATTCAATTTAATG [CACACA_negctrl_site69]", "gcPBM binding intensity (ln)": "9.995 ± 0.035"}, {"sequence": "TGAAAAATATAAGGTTGTACTTACATCGGGAATAAT [XGTACX_site4701]", "gcPBM binding intensity (ln)": "11.3 ± 0.83"}, {"sequence": "AATTATGTGTGTCAATGTACACGATTTACATAATAT [XGTACX_site5150]", "gcPBM binding intensity (ln)": "11.3 ± 0.93"}, {"sequence": "ATCCGTGGGTGAAATACACACATGATAATGTGAATG [CACACA_site4662]", "gcPBM binding intensity (ln)": "9.995 ± 0.064"}, {"sequence": "ATAAATGAACAAGTGGCACACACACCGTATAACTAA [CACACA_site9047]", "gcPBM binding intensity (ln)": "10.3 ± 0.21"}, {"sequence": "TATATCTTAATATTTACACACATGCGCACCCATAAA [CACACA_site5349]", "gcPBM binding intensity (ln)": "10.6 ± 0.52"}, {"sequence": "AAAAAAAAAAAAAAAAGTACATATAATAAATAATGA [XGTACX_site7931]", "gcPBM binding intensity (ln)": "11.6 ± 1"}, {"sequence": "TAAGTATATATATTTACACACATTTGTTTTTTTTTA [CACACA_site3784]", "gcPBM binding intensity (ln)": "9.79 ± 0.028"}, {"sequence": "TTTTAAATACTTTATTGTACATTATATATATATATA [XGTACX_site7021]", "gcPBM binding intensity (ln)": "11 ± 0.59"}, {"sequence": "AATCTTTGTAATAAAAGTACATTAATTTTATTAATA [XGTACX_site8325]", "gcPBM binding intensity (ln)": "11.3 ± 1"}, {"sequence": "ACACATACAACGTGGTGTACAAATAATTATAATCAA [XGTACX_site2287]", "gcPBM binding intensity (ln)": "11.1 ± 0.4"}, {"sequence": "GTTATAATTGAACTAGTGCATAAATATATTTTAATT [GTGCAC_site9851]", "gcPBM binding intensity (ln)": "10.3 ± 0.16"}, {"sequence": "AATTCTGGCAAAATAACACACACATATATTTTATAT [CACACA_site9064]", "gcPBM binding intensity (ln)": "10 ± 0.028"}, {"sequence": "TATCTTTTTTTTAATACACACAAATATATGAAAGTA [CACACA_site4161]", "gcPBM binding intensity (ln)": "10.2 ± 0.18"}, {"sequence": "ATGTGTATATGTGTGGGTACTTAATTTTTTTCTTTA [XGTACX_site5351]", "gcPBM binding intensity (ln)": "11.2 ± 0.6"}, {"sequence": "CGTATTATTATATAAACACACAAGGGGGCATGTATA [CACACA_site745]", "gcPBM binding intensity (ln)": "11.2 ± 0.71"}, {"sequence": "ATATAAACACTGAATGCATGCACATATATATATATA [TGCATGCA_site940]", "gcPBM binding intensity (ln)": "10.2 ± 0.26"}, {"sequence": "GGGGGGGGAGGGTGAATACACACGTAATAATCATAA [CACACA_site1716]", "gcPBM binding intensity (ln)": "11.6 ± 0.94"}, {"sequence": "TTTTTTTTTACTAACTGTACTAAAGAAAAAAAAGGG [XGTACX_site3519]", "gcPBM binding intensity (ln)": "11.4 ± 0.79"}, {"sequence": "ATAAAGGAATTTTATACACACAACATATATATATAT [CACACA_site2861]", "gcPBM binding intensity (ln)": "10.1 ± 0.38"}]}]}
